About 230 (0.21%) of roughly 110,000 compounds showed an effect of 50% or more. This is one part of the list.
These molecules were tested against DPAP1 (Plasmodium falciparum, UniProt Q8IIJ9) (assay: primary screen, percent inhibition; read by cleavage of a fluorogenic dipeptide substrate; higher = more effect of the substance).
Parameters: species or system P. falciparum D10 trophozoite lysates; single well
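Note: 30 min substrate incubation versus DMSO and 10 µM JCP410 controls.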

DPAP1, sequence (Q8IIJ9 whole entry, looked up): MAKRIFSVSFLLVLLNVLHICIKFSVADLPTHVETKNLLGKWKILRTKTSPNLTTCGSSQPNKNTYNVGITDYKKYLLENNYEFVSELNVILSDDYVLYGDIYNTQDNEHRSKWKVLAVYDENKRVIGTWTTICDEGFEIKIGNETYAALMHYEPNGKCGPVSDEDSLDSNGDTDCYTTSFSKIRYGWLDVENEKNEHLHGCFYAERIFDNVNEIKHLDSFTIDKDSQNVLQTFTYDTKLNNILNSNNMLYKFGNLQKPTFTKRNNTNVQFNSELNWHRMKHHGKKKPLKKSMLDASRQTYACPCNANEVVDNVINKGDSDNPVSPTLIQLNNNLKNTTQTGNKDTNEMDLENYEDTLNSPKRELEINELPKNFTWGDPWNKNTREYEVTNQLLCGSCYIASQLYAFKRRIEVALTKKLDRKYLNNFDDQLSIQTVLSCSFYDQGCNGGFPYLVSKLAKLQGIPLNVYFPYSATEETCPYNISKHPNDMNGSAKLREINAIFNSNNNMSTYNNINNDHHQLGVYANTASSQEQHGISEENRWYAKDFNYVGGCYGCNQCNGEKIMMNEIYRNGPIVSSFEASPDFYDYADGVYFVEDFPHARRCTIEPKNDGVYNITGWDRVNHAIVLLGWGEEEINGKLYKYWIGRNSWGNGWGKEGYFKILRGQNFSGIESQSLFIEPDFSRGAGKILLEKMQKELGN

SMILES	% Inhibition @ 10 uM
COc1ccc(Cl)cc1NC(=O)NC1CCCCC1	-4.01%
Cc1cccc(CCNC(=O)C2c3ccccc3C(=O)N3CCc4ccccc4C23)c1 (stereo not drawn)	-1.62%
CCC(C)N(CCNC(=O)Cn1ncc2c1-c1cc(C)ccc1CC2)Cc1ccco1 (stereo not drawn)	-1.51%
CC(C)OCc1cc(CN2CCOCC2)c(O)c2ncccc12	1.12%
Cc1ccc(S(=O)(=O)C2C(=O)N(C)C3(C)CC2c2cc(Br)ccc2O3)cc1 (stereo not drawn)	-4.24%
CC(C)(O)C(=O)/C=C/c1ccc2c(c1)OCO2	-6.44%
Cc1ccsc1-c1nc(CSCC(=O)N2CCC3(CC2)OCCO3)c(C)o1	0.689%
CCN(CC)CCN(CC)CCC1=C(C)CCCC1(C)C	1.9%
CN1CCCCc2c1nc1ccccc1c2N	-2.42%
CC1(C)CC(=O)C(/C=N/CCCO)=C(O)C1	1.25%
COc1ccc(N2CCN(C(=O)c3csc(C)c3C)CC2)cc1	1.85%
O=C(c1ccccc1)N1CCN(C(=O)c2cccnc2)CC1	0.565%
CN(Cc1ccccc1)S(=O)(=O)c1ccc(NC(=O)CCC(=O)O)cc1	2.48%
COc1cc(OC)c(C(=O)O/N=C(\N)c2cccnc2)cc1OC	-7.46%
Cc1ccc(-c2csc(NC(=O)C3CCCCC3C(=O)O)n2)cc1 (stereo not drawn)	-0.425%
CCOC(=O)C1=CN(C)C=C(C(=O)OCC)C1c1cc2c(cc1Br)OCO2	-5.05%
Cc1nn(C(=O)CNC(=O)c2ccccc2)c(C)c1C	3.54%
COc1ccc(C(=O)C2=C(O)C(=O)N(CCN3CCNCC3)C2c2ccccc2)cc1 (stereo not drawn)	3.8%
Cc1cccc(C(=O)Nc2ccccc2-n2cccc2)c1	2.02%
COCCOC(=O)c1[nH]c2c(c1C)C(=O)CC(c1cc(OC)c(OC)c(OC)c1)C2 (stereo not drawn)	-2.63%
COc1ccc(OC)c(NC(=O)COc2ccc(C)cc2)c1	-1.61%
CCC(Oc1ccccc1)C(=O)Nc1ccc2ccccc2c1 (stereo not drawn)	2.03%
Cc1cc(NS(=O)(=O)c2ccc(C(C)(C)C)cc2)no1	-1.47%
CC(C)Oc1ccc(C(=O)Nc2sc3c(c2C(=O)NCc2cccnc2)CCCC3)cc1	-10.8%
Cc1ccccc1C(=O)NCc1ccco1	0.273%
Cc1ccc(CSCc2ccc(C(=O)NCCC(C)C)o2)cc1	6.86%

SMILES	% Inhibition @ 10 uM
COc1ccc(CCNC(=O)Cn2cc(C(=O)c3ccc(C)cc3)c(=O)c3ccc(C)nc32)cc1OC	2.01%
COc1ccc2c(c1)c(=O)c(C(=O)O)c(-c1ccc3c(c1)OCO3)n2C	-6.43%
CCOc1ccccc1C1C(C#N)=C(N)Oc2[nH]nc(C)c21 (stereo not drawn)	-8.28%
Cc1cccc(C)c1NC(=O)Cn1c(-c2nonc2N)nc2ccccc21	0.777%
CC1(C)CC(O)=C/C(=N/CCN2CCN(C(=O)Nc3ccc(Cl)cc3)CC2)C1	-0.366%
COc1ccc(/C=C/c2sc3ccc(O)cc3[n+]2C)cc1	2.1%
CCn1c2ccccc2c2cc(CNCCc3ccccc3)ccc21	0.162%
C=Cc1ccc(Cn2c(C(=O)O)c(CNCc3ccc(Cl)cc3)c3ccc(OC)cc32)cc1	7.39%
CC1CCCC(N(C)C2CCN(C)CC2)C1 (stereo not drawn)	1.88%
Cn1nc(-c2ccccc2F)c2cc(C(=O)NCCN3CCN(Cc4ccccc4)CC3)sc21	2%
Cc1ccc(S(=O)(=O)N2CCN(Cc3cc(-c4ccccc4)ccc3O)CC2)cc1	-3.48%
COc1cccc2c1OC1(C)CC2C(S(=O)(=O)c2ccc(C(C)C)cc2)C(=O)N1 (stereo not drawn)	-8.02%
COc1cc(OC)c(OC)cc1/C=C1\N=C(c2ccc(C)c(C)c2)OC1=O	5.94%
Oc1nc(SC(c2ccccc2)c2ccccc2)nc(O)c1Cc1ccccc1	4.6%
CCCCOc1ccc(C(=O)NCC2COc3ccccc3O2)cc1 (stereo not drawn)	-6.3%
O=C(NCc1cccs1)C1CCN(c2cnccn2)CC1	4%
CC(=O)c1ccc(NC(=O)C2CC(=O)N(c3ccccc3)C2)cc1 (stereo not drawn)	3.53%
NC(=O)c1c(NC(=O)C23CC4CC(CC(C4)C2)C3)sc2c1CCCCC2	52.3%
O=C(c1cccnc1)N1CCNCC1	-6.7%
CCCCN(CCCC)C(=O)c1ccc(CNS(=O)(=O)c2ccc(OC)cc2)cc1	-3.35%
O=[N+]([O-])c1ccccc1CN1CCCCCCC1	-3.65%
CCOC(=O)c1ccc2nc(NC3(C(F)(F)F)C(=O)NC(C)=C3C#N)sc2c1 (stereo not drawn)	-5.96%
CC(=O)c1cc(-c2ccc(F)cc2)n(CCC(=O)NC2CCCCC2C)c1C (stereo not drawn)	1.47%
CCOC(=O)C1CCCCN1Cc1ccc(Cl)cc1 (stereo not drawn)	-0.127%
Fc1ccccc1N1CCN(Cc2cc(Br)cs2)CC1	-0.127%
N#Cc1c(NC(=O)/C=C/C(=O)O)sc2c1CCCC2	-2.72%

SMILES	% Inhibition @ 10 uM
O=C(CN(C1CCCCC1)S(=O)(=O)c1ccc(Cl)cc1)N1CCN(Cc2ccccc2)CC1	-8.67%
O=C(Nc1cc(Cl)cc(Cl)c1)Nc1ccc(Cl)c(Cl)c1	-2.02%
Cc1nc(-c2ccc(S(=O)(=O)N3CCOCC3)cc2)cs1	2.76%
COc1ccc(NC(=O)c2ccc(C)cc2)c(OC)c1	-3.44%
CCOc1ccccc1CNC(=O)c1cc2cccc3c2n1CCS3	-0.0668%
O=C(c1ccc(CS(=O)(=O)c2c(Cl)cccc2Cl)o1)N1CCN(Cc2ccccc2)CC1	-6.89%
CCCc1[nH]nc2c1C(c1ccc(OC(C)C)c(OC)c1)C(C#N)=C(N)O2 (stereo not drawn)	6.42%
Cc1ccc(OCc2nc(-c3ccc(C(F)(F)F)cc3)no2)cc1C	-0.671%
Nc1ccccc1-c1nc2ccccc2c2nc3ccccc3n12	-4.58%
N#Cc1ccc(Oc2ccc(NC(=O)C3CC=CCC3C(=O)O)cc2)cc1 (stereo not drawn)	-3.83%
Cc1ccc(S(=O)(=O)Oc2ccccc2C=C2C(=O)N(C)C(=O)N(C)C2=O)cc1	-1.93%
CCOC(=O)c1c(C)[nH]c2ccc(OC)cc12	-9.45%
O=C(NC1CCCCC1)c1cccnc1C(=O)O	-1.08%
CC1CC(Nc2ccccc2)c2ccccc2N1C(=O)/C=C/c1ccccc1 (stereo not drawn)	-0.569%
Cc1ccc(N2C(=O)CC(N3CCCCC3C)C2=O)cc1 (stereo not drawn)	-6.36%
Cc1ccc(CNC(=O)C(Cc2ccccc2)NS(=O)(=O)c2cccc3nsnc23)cc1 (stereo not drawn)	-1.43%
Cc1ccc(S(=O)(=O)NCCC(=O)NC(C)c2ccccc2)cc1 (stereo not drawn)	-5.8%
Cc1ccc(S(=O)(=O)N(C)c2ccc(C(=O)NCc3ccccn3)cc2)cc1	-3.33%
COc1ccc(Oc2ccc3[nH]c4c(c3c2)CCCC4=O)cc1	3.05%
CC1(C)Cc2ccccc2-c2nc(S)nc(O)c21	-4.35%
CCC(=C1C(=O)CCCC1=O)N1CCCC1	-2.24%
C=CCNC(=O)c1ccccc1NS(=O)(=O)c1ccc(NC(C)=O)cc1	3.35%
CCC(C)c1ccccc1OCC(=O)Nc1sc2c(c1C(N)=O)CCCC2 (stereo not drawn)	-3.72%
CCn1cc2nc(SC)n(Cc3ccc(C)cc3)c(=O)c2n1	-6.08%
O=c1c2c(-c3ccc(Cl)cc3)csc2nc2c3ccccc3c(N3CCN(CCO)CC3)nn12	-7.14%
O=C(Nc1cccnc1)c1cc(-c2ccco2)on1	0.0221%

SMILES	% Inhibition @ 10 uM
CC(CCc1ccccc1)NC(=O)c1cc(-c2ccccc2)[nH]n1 (stereo not drawn)	-3.88%
Cc1ccc(C2=NN=C(NC(=O)CSc3nnc4c(n3)[nH]c3ccccc34)SC2)cc1	5.81%
O=C1C2C(c3ccccc3)OC3(C(=O)c4ccccc4C3=O)C2C(=O)N1Cc1ccccc1 (stereo not drawn)	0.35%
CCO/C(O)=C1\C(C)=NC2=C(C(=O)CC(c3ccc(OC)cc3)C2)C1c1ccccc1OC(C)C (stereo not drawn)	14.5%
O=C(O)CCCc1ccc2ccc3cccc4ccc1c2c34	8.97%
COc1ccc(OC)c(/C=C/c2sc3ccccc3[n+]2C)c1	-1.63%
O=C1CC(c2cccs2)Cc2nc(NCc3ccccc3)ncc21 (stereo not drawn)	1.63%
C=C(C)c1cccc(C(C)(C)NC(=O)N2CCCCCC2)c1	4.35%
Cc1cc(C(C)(C)C)n2ncc(-c3ccccc3)c2n1	1.86%
COc1cc(C)ccc1S(=O)(=O)N1CCCCCC1	0.503%
COc1ccc(CNCc2c(C(=O)O)n(Cc3ccccc3F)c3cc(C)ccc23)c(OC)c1	-0.537%
Oc1nnc(Cc2ccncc2)c2ccccc12	-4%
O=C(CNC(=O)c1ccccc1F)c1ccccc1	2.26%
Cc1cc(O)c(C=O)c(C)c1Cl	3.39%
COc1ccccc1CNC(=O)c1cc2oc3ccccc3c2n1C	6.06%
CCOc1cc(/C=C2\C(=N)N3N=C(N4CCC(C)CC4)SC3=NC2=O)ccc1O	1.72%
CCCOc1ccc(C(C)=O)cc1Cc1c(O)nc(SC)nc1O	23.7%
CN(Cc1ccco1)C(=O)C1CCN(c2nnc(-n3cccc3)s2)CC1	-1.98%
COC(=O)c1c[nH]n2c(NC3CCCCCC3)c(-c3ccc(OC)cc3)nc12	2.79%
Cc1c(C(=O)O)c(-c2ccccc2)nn1-c1ccccc1	-3.65%
CCS(=O)(=O)N1CCCC(C(=O)NCc2cccnc2)C1 (stereo not drawn)	-1.79%
C=CCOc1ccc(CNc2cccc(C(=O)O)c2)cc1OC	-0.763%
CCc1ccc(C2=NN(CCC(=O)NCc3ccccc3)C(=O)CC2)cc1	3.93%
O=C(O)C1CN=C(c2ccccc2)N1 (stereo not drawn)	-0.256%

From article PMC6919601, “Identification of Plasmodium dipeptidyl aminopeptidase allosteric inhibitors by high throughput screening” (PLoS ONE, 2019)
